Experimental data as given in patent publication US20160291037A1.

Columns and labels:
[1] = biological target: oligomeric beta-amyloid (human) (UniProt P05067); test: phage-based capture ELISA; control (ND) sera; normalized 0-1; outliers present
[2] = biological target: oligomeric beta-amyloid (human) (UniProt P05067); test: phage-based capture ELISA; TBI sera 10 days post-injury; normalized 0-1; outliers present
[3] = biological target: oligomeric beta-amyloid (human) (UniProt P05067); test: phage-based capture ELISA; control (ND) sera; normalized 0-1; outliers removed
[4] = biological target: oligomeric beta-amyloid (human) (UniProt P05067); test: phage-based capture ELISA; TBI sera 5 days post-injury; normalized 0-1; outliers present
[5] = biological target: oligomeric beta-amyloid (human) (UniProt P05067); test: phage-based capture ELISA; TBI sera 24 hrs post-injury; normalized 0-1; outliers present
[6] = biological target: oligomeric beta-amyloid (human) (UniProt P05067); test: phage-based capture ELISA; TBI sera 6 hrs post-injury; normalized 0-1; outliers present
[7] = biological target: oligomeric beta-amyloid (human) (UniProt P05067); test: phage-based capture ELISA; TBI sera 10 days post-injury; normalized 0-1; outliers removed
[8] = biological target: oligomeric beta-amyloid (human) (UniProt P05067); test: phage-based capture ELISA; TBI sera 6 hrs post-injury; normalized 0-1; outliers removed
[9] = biological target: oligomeric beta-amyloid (human) (UniProt P05067); test: phage-based capture ELISA; TBI sera 24 hrs post-injury; normalized 0-1; outliers removed
[10] = biological target: oligomeric beta-amyloid (human) (UniProt P05067); test: phage-based capture ELISA; TBI sera 5 days post-injury; normalized 0-1; outliers removed

B1: C6T anti-oligomeric beta-amyloid scFv (nanobody) (scFv)
scFv: [sequence of about 100 residues not given]SYGSVKISCFDYWGQSTLVTVSSGGGGSGGGGSGGGGSEIVLTQSPDSLAVSLGERATINCKSSQSVLYNSNNKNYLAWYQQKPGQSPELLIYWASTRESGVPDRFSGSGSGTEFTLTISSLQAEDVAVYYCQQFYSTPPTFGQGTKLEIKRAAAHHHHHHGAAEQKLISEEDLNGAA
- normalized binding ratio (heat map) [1]: 0.105
- normalized binding ratio (heat map) [2]: 0.246
- normalized binding ratio (heat map) [3]: 0.105
- normalized binding ratio (heat map) [4]: 0.24
- normalized binding ratio (heat map) [5]: 0.153
- normalized binding ratio (heat map) [6]: 0.176
- normalized binding ratio (heat map) [7]: 0.246
- normalized binding ratio (heat map) [8]: 0.176
- normalized binding ratio (heat map) [9]: 0.153
- normalized binding ratio (heat map) [10]: 0.24
